The assay deals with Trichoderma virens ATCC 9645. As to the kind of experiment: growth yield (OD600) with compound + IPBC relative to untreated control; higher = less growth inhibition. The settings on record: compound concentration: 100 uM, IPBC concentration: 200 ng/ml. In outline:
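Growth appears as means of duplicate screens, relative to the control containing neither agent. To obtain it, OD600 was read on a BioTek EL800 at 40 h and 72 h. The cultures were 100 μl aliquots in 96-well plates at 30 °C, holding Trichoderma virens ATCC 9645 spores at 15,000 spores ml^−1 in potato dextrose broth, library compounds at 100 μM final, and, in some wells, a biocide at 200 ng ml^−1.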

Structures are written as SMILES. Counter-ions that a name gives are not always drawn. ± gives the standard error. The whole screen tested about 1,300 compounds, of which about 130 (10%) showed an effect of 50% or more. Only a part is listed here, and it is no random draw.

Turning to `COCC(=O)Nc1c(I)c(C(=O)NCC(O)CO)c(I)c(C(=O)N(C)CC(O)CO)c1I` (configuration not stated) [Iopromide] + CCCCNC(=O)OCC#CI [3-iodo-2-propynyl butylcarbamate (IPBC)], the growth yield worked out at 98 ± 5.2% (40 h) and 96 ± 5.8% (72 h).

On to `CC1COc2c(N3CCN(C)CC3)c(F)cc3c(=O)c(C(=O)O)cn1c23` (configuration not stated) [Ofloxacin] + CCCCNC(=O)OCC#CI [3-iodo-2-propynyl butylcarbamate (IPBC)], for which the growth yield was 84.3 ± 1.8% (40 h) and 91.3 ± 0.94% (72 h).

Regarding `Cn1cnc([N+](=O)[O-])c1Sc1ncnc2[nH]cnc12` [Azathioprine] + CCCCNC(=O)OCC#CI [3-iodo-2-propynyl butylcarbamate (IPBC)], the growth yield is, setting by setting: (40 h) 99.9 ± 7.5%; (72 h) 98.6 ± 5.2%.

On to `CC(C)C(=O)Nc1ccc([N+](=O)[O-])c(C(F)(F)F)c1` [Flutamide] + CCCCNC(=O)OCC#CI [3-iodo-2-propynyl butylcarbamate (IPBC)], for which the growth yield runs as follows: (40 h) 58.29 ± 0.48%; (72 h) 78.9 ± 4.2%.

For `OCCN1C[C@H](O)[C@@H](O)[C@H](O)[C@H]1CO` [Miglitol] + CCCCNC(=O)OCC#CI [3-iodo-2-propynyl butylcarbamate (IPBC)], the growth yield by setting is: (40 h) 90.1 ± 9.1%; (72 h) 93 ± 4.5%.

Regarding `CCNCC(O)c1cccc(O)c1` (configuration not stated) [Etilefrine hydrochloride] + CCCCNC(=O)OCC#CI [3-iodo-2-propynyl butylcarbamate (IPBC)], the growth yield by setting is: (40 h) 96.9 ± 3.5%; (72 h) 98.1 ± 2.4%.

For the compound `CCC(=O)OCC(=O)[C@@]1(OC(=O)CC)[C@@H](C)C[C@H]2[C@@H]3CCC4=CC(=O)C=C[C@]4(C)[C@@]3(Cl)[C@@H](O)C[C@@]21C` [Beclomethasone dipropionate] + CCCCNC(=O)OCC#CI [3-iodo-2-propynyl butylcarbamate (IPBC)], the growth yield is, setting by setting: (40 h) 106.9 ± 0.48%; (72 h) 105 ± 1.5%.

Take `CCN(CC)Cc1cc(Nc2ccnc3cc(Cl)ccc23)ccc1O` [Amodiaquin dihydrochloride dihydrate] + CCCCNC(=O)OCC#CI [3-iodo-2-propynyl butylcarbamate (IPBC)]: the growth yield (40 h) was 62.9% and the growth yield (72 h) amounted to 93.13 ± 0.84%.

`COc1ccccc1N1CCN(CCCNc2cc(=O)n(C)c(=O)n2C)CC1` [Urapidil hydrochloride] + CCCCNC(=O)OCC#CI [3-iodo-2-propynyl butylcarbamate (IPBC)]: the growth yield reads like this: (40 h) 88.3 ± 1.3%; (72 h) 92.4 ± 0.1%.

On to `COc1nc(N)nc2c1ncn2[C@@H]1O[C@H](CO)[C@@H](O)[C@@H]1O` [Nelarabine] + CCCCNC(=O)OCC#CI [3-iodo-2-propynyl butylcarbamate (IPBC)], for which the growth yield (40 h) is 92.6 ± 7.2% and the growth yield (72 h) is 94 ± 4.4%.

For `Cn1c(=O)c2c(ncn2CCO)n(C)c1=O` [Etofylline] + CCCCNC(=O)OCC#CI [3-iodo-2-propynyl butylcarbamate (IPBC)], the growth yield was determined as 96.9 ± 3.8% (40 h) and 100 ± 1.8% (72 h).

Consider `CC(C)NCC(O)c1cc(O)cc(O)c1` (configuration not stated) [Metaproterenol sulfate, orciprenaline sulfate] + CCCCNC(=O)OCC#CI [3-iodo-2-propynyl butylcarbamate (IPBC)], for which the growth yield is 85.14 ± 0.32% (40 h) and 90.72 ± 0.52% (72 h).

In the case of `C#CCN(C)CCCOc1ccc(Cl)cc1Cl` [Clorgyline hydrochloride] + CCCCNC(=O)OCC#CI [3-iodo-2-propynyl butylcarbamate (IPBC)], the growth yield (40 h) is 60.36 ± 0.32% and the growth yield (72 h) turned out to be 87.2 ± 2.2%.

As for `O=C(O)CN(CCN(CC(=O)O)CC(=O)O)CCN(CC(=O)O)CC(=O)O` [Pentetic acid] + CCCCNC(=O)OCC#CI [3-iodo-2-propynyl butylcarbamate (IPBC)], the growth yield (40 h) is 18.7 ± 1.6%.

As to `O=C(O)CCNC(=O)c1ccc(/N=N/c2ccc(O)c(C(=O)O)c2)cc1` [Balsalazide Sodium] + CCCCNC(=O)OCC#CI [3-iodo-2-propynyl butylcarbamate (IPBC)], the growth yield was 87.4 ± 9.2% (40 h) and 89 ± 5.6% (72 h).

As for `Cc1cccc(Nc2ccccc2C(=O)O)c1C` [Mefenamic acid] + CCCCNC(=O)OCC#CI [3-iodo-2-propynyl butylcarbamate (IPBC)], the growth yield reads like this: (40 h) 80.2 ± 2.1%; (72 h) 85.89 ± 0.1%.

Take `CCC(C)n1ncn(-c2ccc(N3CCN(c4ccc(OCC5COC(Cn6cncn6)(c6ccc(Cl)cc6Cl)O5)cc4)CC3)cc2)c1=O` (configuration not stated) [Itraconazole] + CCCCNC(=O)OCC#CI [3-iodo-2-propynyl butylcarbamate (IPBC)]: the growth yield by setting is: (40 h) 14.3 ± 1.9%; (72 h) 11.3 ± 1.7%.

With `C[n+]1ccccc1/C=N/O` [Pralidoxime chloride] + CCCCNC(=O)OCC#CI [3-iodo-2-propynyl butylcarbamate (IPBC)], the growth yield (40 h) stood at 96.7 ± 2.1% and the growth yield (72 h) came out at 96.91 ± 0.42%.

As to `O=C1OC(CN2CCOCC2)CN1/N=C/c1ccc([N+](=O)[O-])o1` (configuration not stated) [Furaltadone hydrochloride] + CCCCNC(=O)OCC#CI [3-iodo-2-propynyl butylcarbamate (IPBC)], the growth yield was 85.8 ± 13% (40 h) and 92.9 ± 6.7% (72 h).

For `CC(C)(N)Cc1ccccc1` [Phentermine hydrochloride] + CCCCNC(=O)OCC#CI [3-iodo-2-propynyl butylcarbamate (IPBC)], the growth yield is, setting by setting: (40 h) 94.4 ± 6.3%; (72 h) 95.8 ± 4.5%.

For `O=C1CCC(N2C(=O)c3ccccc3C2=O)C(=O)N1` (configuration not stated) [Thalidomide] + CCCCNC(=O)OCC#CI [3-iodo-2-propynyl butylcarbamate (IPBC)], the growth yield amounted to 95.3 ± 3.2% (40 h) and 101 ± 4.4% (72 h).

`O=C1NCCN1CCN1CCC(c2cn(-c3ccc(F)cc3)c3ccc(Cl)cc23)CC1` [Sertindole] + CCCCNC(=O)OCC#CI [3-iodo-2-propynyl butylcarbamate (IPBC)]: the growth yield (40 h) worked out at 5.24 ± 0.79% and the growth yield (72 h) was found to be 3.46 ± 0.1%.

For the compound `Cc1nc2n(c(=O)c1CCN1CCC(c3noc4cc(F)ccc34)CC1)CCCC2O` (configuration not stated) [Paliperidone] + CCCCNC(=O)OCC#CI [3-iodo-2-propynyl butylcarbamate (IPBC)], the growth yield reads like this: (40 h) 82.28 ± 0.32%; (72 h) 90.09 ± 0.32%.

In the case of `CCN(CC)CCNC(=O)COc1ccc(OC)cc1` [Mefexamide hydrochloride] + CCCCNC(=O)OCC#CI [3-iodo-2-propynyl butylcarbamate (IPBC)], the growth yield is 82.44 ± 0.16% (40 h) and 93.3 ± 1.1% (72 h).

As for `Clc1ccc(C(Cn2ccnc2)OCc2csc3c(Cl)cccc23)c(Cl)c1` (configuration not stated) [Sertaconazole nitrate] + CCCCNC(=O)OCC#CI [3-iodo-2-propynyl butylcarbamate (IPBC)], the growth yield (40 h) came to 3.97 ± 0.16% and the growth yield (72 h) is 3.57 ± 0.42%.

On to `CC(=O)OCC1=C(C(=O)O)N2C(=O)[C@@H](NC(=O)Cc3cccs3)[C@H]2SC1` [Cephalothin sodium salt] + CCCCNC(=O)OCC#CI [3-iodo-2-propynyl butylcarbamate (IPBC)], for which the growth yield is, setting by setting: (40 h) 91.7 ± 8.4%; (72 h) 90.9 ± 7.9%.

With `CCCCc1nc(Cl)c(CO)n1Cc1ccc(-c2ccccc2-c2nnn[nH]2)cc1` [Losartan] + CCCCNC(=O)OCC#CI [3-iodo-2-propynyl butylcarbamate (IPBC)], the growth yield stood at 98.3 ± 6.2% (40 h) and 96.7 ± 5.7% (72 h).

Take `CC(C)NCC(O)c1ccc(O)c(O)c1` (single isomer, unassigned; (-)) [(-)-Isoproterenol hydrochloride] + CCCCNC(=O)OCC#CI [3-iodo-2-propynyl butylcarbamate (IPBC)]: the growth yield was 86.9 ± 2.7% (40 h) and 89.9 ± 1.6% (72 h).

For the compound `O=C1C(O)=C([C@H]2CC[C@H](c3ccc(Cl)cc3)CC2)C(=O)c2ccccc21` [Atovaquone] + CCCCNC(=O)OCC#CI [3-iodo-2-propynyl butylcarbamate (IPBC)], the growth yield was determined as 92.1 ± 14% (40 h) and 96.5 ± 7.5% (72 h).

Regarding `CC(C)C[C@H]1C(=O)N2CCC[C@H]2[C@]2(O)O[C@](NC(=O)[C@@H]3C=C4c5cccc6[nH]c(Br)c(c56)C[C@H]4N(C)C3)(C(C)C)C(=O)N12` [Bromocryptine mesylate] + CCCCNC(=O)OCC#CI [3-iodo-2-propynyl butylcarbamate (IPBC)], the growth yield reads like this: (40 h) 106.3 ± 0.79%; (72 h) 110 ± 2.8%.

Consider `Cc1ccccc1C(OCCN(C)C)c1ccccc1` (configuration not stated) [Orphenadrine hydrochloride] + CCCCNC(=O)OCC#CI [3-iodo-2-propynyl butylcarbamate (IPBC)], for which the growth yield runs as follows: (40 h) 81.48 ± 0.79%; (72 h) 94.91 ± 0.94%.

For `NC(=O)NC1NC(=O)NC1=O` (configuration not stated) [Allantoin] + CCCCNC(=O)OCC#CI [3-iodo-2-propynyl butylcarbamate (IPBC)], the growth yield was determined as 83.71 ± 0.48% (40 h) and 89.2 ± 2.2% (72 h).

`COC(=O)C1=C(C)NC(C)=C(C(=O)OCC(C)C)C1c1ccccc1[N+](=O)[O-]` (configuration not stated) [Nisoldipine] + CCCCNC(=O)OCC#CI [3-iodo-2-propynyl butylcarbamate (IPBC)]: the growth yield by setting is: (40 h) 41.3 ± 8.3%; (72 h) 34.71 ± 0.1%.

For `COC(=O)C1=C(C)NC(C)=C(C(=O)OCCN(C)Cc2ccccc2)C1c1cccc([N+](=O)[O-])c1` (configuration not stated) [Nicardipine hydrochloride] + CCCCNC(=O)OCC#CI [3-iodo-2-propynyl butylcarbamate (IPBC)], the growth yield by setting is: (40 h) 73.1 ± 1.6%; (72 h) 94.7 ± 2.2%.

Turning to `CN1[C@@H]2CC[C@H]1C[C@@H](OC(=O)C(CO)c1ccccc1)C2` (some centres not stated) [Atropine sulfate monohydrate] + CCCCNC(=O)OCC#CI [3-iodo-2-propynyl butylcarbamate (IPBC)], the growth yield stood at 89.3 ± 2.2% (40 h) and 93.97 ± 0.21% (72 h).

`CN1CCN(c2c(F)cc3c(=O)c(C(=O)O)cn4c3c2SCC4)CC1` [Rufloxacin] + CCCCNC(=O)OCC#CI [3-iodo-2-propynyl butylcarbamate (IPBC)]: the growth yield reads like this: (40 h) 90.2 ± 3.8%; (72 h) 92.29 ± 0.42%.

On to `Cc1cnc(C(=O)NCCc2ccc(S(=O)(=O)NC(=O)NC3CCCCC3)cc2)cn1` [Glipizide] + CCCCNC(=O)OCC#CI [3-iodo-2-propynyl butylcarbamate (IPBC)], for which the growth yield came to 96.3 ± 5.1% (40 h) and 98.06 ± 0.73% (72 h).

In the case of `O=C1[C@H](CC[C@H](O)c2ccc(F)cc2)[C@@H](c2ccc(O)cc2)N1c1ccc(F)cc1` [Ezetimibe] + CCCCNC(=O)OCC#CI [3-iodo-2-propynyl butylcarbamate (IPBC)], the growth yield reads like this: (40 h) 88.5 ± 5.9%; (72 h) 93.2 ± 4.7%.

Consider `CCC1NC(=O)c2cc(S(N)(=O)=O)c(Cl)cc2N1` (configuration not stated) [Quinethazone] + CCCCNC(=O)OCC#CI [3-iodo-2-propynyl butylcarbamate (IPBC)], for which the growth yield by setting is: (40 h) 107 ± 6.7%; (72 h) 102 ± 2.9%.
